From patent US6800434B2, “Peptides as NS3-serine protease inhibitors of hepatitis C virus” (priority 2000, dated 2004)
Read-outs that look alike come from different tables or passages of the source. Starred links: 1 amine or outer side, 2 acyl side, 3 side chain; linkers in the order of their positions; H or OH if unused. Non-standard residues stand in square brackets, D forms with d. Residues, ends and D or L forms follow the SMILES beside them. ξ: configuration not given here. *: point of attachment. X27 = CC(C)(C)[Si](C)(C)O[C@@H]1C[C@@H](C(=O)[*:2])N([*:1])C1; X5 = O=C(N[C@@H]1C[C@@H](C(=O)[*:2])N([*:1])C1)OCc1ccccc1; Pro(4,4-SCH2CH2S) = O=C(O)[C@@H]1CC2(CN1)SCCS2; X37 = O=C([C@@H]1CS(=O)(=O)CN1[*:1])[*:2]; Hyp = O=C(O)[C@@H]1C[C@@H](O)CN1; X3 = CCCC(N[*:1])C(=O)C(=O)[*:2]; Chg = N[CH](C(=O)O)C1CCCCC1; Tle = CC(C)(C)[C@H](N)C(=O)O; Thz = O=C(O)[C@@H]1CSCN1; ξE = NC(CCC(=O)O)C(=O)O; ξV = CC(C)C(N)C(=O)O; OtBu = CC(C)(C)O*; NHAllyl = C=CCN*; tBu = CC(C)(C)*; OAll = C=CCO*

Biological target: Recombinant heterodimeric HCV NS3/NS4A protease (strain 1a) (Hepatitis C virus genotype 1a, UniProt P27958)
Experiment: biochemical

SMILES | Ki (Ki* Range) [nM] | Ki (Table 1, HCV protease continuous assay, read-out: Ki* Range) [nM]
C=CCNC(=O)C(=O)C(CCC)NC(=O)C1CCCN1C(=O)C(NC(=O)C(NC(=O)C(CCC(=O)OC(C)(C)C)NC(=O)C(CCC(=O)O)NC(C)=O)C(C)C)C1CCCCC1 (stereo not shown) [Compound 36] (Ac-EE(OtBu)V[Chg]P[X3]-NHAllyl; configuration not given here) | 1 to 100 | 
C=CCOC(=O)CNC(=O)C(=O)C(CCC)NC(=O)[C@@H]1C[C@@H](NC(=O)OCc2ccccc2)CN1C(=O)C(NC(=O)C(NC(=O)C(CCC(=O)OC(C)(C)C)NC(=O)C(CCC(=O)O)NC(C)=O)C(C)C)C(C)C (stereo partly shown) [Compound 37] (Ac-[ξE][ξE](OtBu)[ξV][ξV][X5][X3]G-OAll) | 101 to 999 | 
C=CCNC(=O)C(=O)C(CCC)NC(=O)C1CCCN1C(=O)C(NC(=O)C(NC(=O)C(CCC(=O)O)NC(=O)C(CCC(=O)O)NC(C)=O)C(C)C)C1CCCCC1 (stereo not shown) [Compound 38] (Ac-EEV[Chg]P[X3]-NHAllyl; configuration not given here) | 1 to 100 | 
C=CCOC(=O)CNC(=O)C(=O)C(CCC)NC(=O)[C@@H]1C[C@@H](NC(=O)OCc2ccccc2)CN1C(=O)C(NC(=O)C(NC(=O)C(CCC(=O)O)NC(=O)C(CCC(=O)O)NC(C)=O)C(C)C)C(C)C (stereo partly shown) [Compound 39] (Ac-[ξE][ξE][ξV][ξV][X5][X3]G-OAll) | 1 to 100 | 
C=CCOC(=O)CNC(=O)C(=O)C(CCC)NC(=O)[C@@H]1C[C@@H](OC(C)(C)C)CN1C(=O)[C@@H](NC(=O)[C@@H](NC(=O)[C@H](CCC(=O)OC(C)(C)C)NC(=O)[C@H](CCC(=O)OC(C)(C)C)NC(C)=O)C(C)C)C(C)C (stereo partly shown) [Compound 40] (Ac-E(OtBu)E(OtBu)VV[Hyp](tBu)[X3]G-OAll) | 1 to 100 | 
C=CCOC(=O)CNC(=O)C(=O)C(CCC)NC(=O)[C@@H]1C[C@@H](O[Si](C)(C)C(C)(C)C)CN1C(=O)[C@@H](NC(=O)[C@@H](NC(=O)[C@H](CCC(=O)OC(C)(C)C)NC(=O)[C@H](CCC(=O)OC(C)(C)C)NC(C)=O)C(C)C)C(C)C (stereo partly shown) [Compound 41] (Ac-E(OtBu)E(OtBu)VV[X27][X3]G-OAll) |  | 1000 to 10000
C=CCOC(=O)CNC(=O)C(=O)C(CCC)NC(=O)[C@@H]1C[C@@H](O)CN1C(=O)[C@@H](NC(=O)[C@@H](NC(=O)[C@H](CCC(=O)O)NC(=O)[C@H](CCC(=O)O)NC(C)=O)C(C)C)C(C)C (stereo partly shown) [Compound 42] (Ac-EEVV[Hyp][X3]G-OAll) | 1 to 100 | 
C=CCNC(=O)C(=O)C(CCC)NC(=O)[C@@H]1CC2(CN1C(=O)C(NC(=O)C(NC(=O)C(CCC(=O)OC(C)(C)C)NC(=O)C(CCC(=O)O)NC(C)=O)C(C)C)C(C)C)SCCS2 (stereo partly shown) [Compound 44] (Ac-[ξE][ξE](OtBu)[ξV][ξV][Pro(4,4-SCH2CH2S)][X3]-NHAllyl) | 1 to 100 | 
C=CCNC(=O)C(=O)C(CCC)NC(=O)[C@@H]1CC2(CN1C(=O)C(NC(=O)C(NC(=O)C(CCC(=O)O)NC(=O)C(CCC(=O)O)NC(C)=O)C(C)C)C(C)C)SCCS2 (stereo partly shown) [Compound 45] (Ac-[ξE][ξE][ξV][ξV][Pro(4,4-SCH2CH2S)][X3]-NHAllyl) | 1 to 100 | 
CCCC(C(=O)C(=O)NCC(=O)O)N1CC[C@H](NC(=O)[C@@H](NC(=O)[C@@H](NC(=O)[C@H](CCC(=O)OC(C)(C)C)NC(=O)[C@H](CCC(=O)OC(C)(C)C)NC(C)=O)C(C)C)C(C)C)C1=O (stereo partly shown) [Compound 46] | 1000 to 10000 | 
C=CCOC(=O)CNC(=O)C(=O)C(CCC)N1CC[C@H](NC(=O)[C@@H](NC(=O)[C@@H](NC(=O)[C@H](CCC(=O)O)NC(=O)[C@H](CCC(=O)O)NC(C)=O)C(C)C)C(C)C)C1=O (stereo partly shown) [Compound 47] | 1000 to 10000 | 
C=CCNC(=O)C(=O)C(CCC)NC(=O)[C@@H]1CCCN1C(=O)[C@@H](NC(=O)[C@@H](NC(=O)[C@H](CCC(=O)OC(C)(C)C)NC(=O)[C@H](CCC(=O)OC(C)(C)C)NC(C)=O)C(C)C)C(C)(C)C (stereo partly shown) [Compound 48] (Ac-E(OtBu)E(OtBu)V[Tle]P[X3]-NHAllyl) | 101 to 999 | 
C=CCNC(=O)C(=O)C(CCC)NC(=O)[C@@H]1CSCN1C(=O)C(NC(=O)C(NC(=O)C(CCC(=O)OC(C)(C)C)NC(=O)C(CCC(=O)OC(C)(C)C)NC(C)=O)C(C)C)C(C)C (stereo partly shown) [Compound 51] (Ac-[ξE](OtBu)[ξE](OtBu)[ξV][ξV][Thz][X3]-NHAllyl) | 101 to 999 | 
C=CCNC(=O)C(=O)C(CCC)NC(=O)[C@@H]1CS(=O)(=O)CN1C(=O)C(NC(=O)C(NC(=O)C(CCC(=O)O)NC(=O)C(CCC(=O)O)NC(C)=O)C(C)C)C(C)C (stereo partly shown) [Compound 53] (Ac-[ξE][ξE][ξV][ξV][X37][X3]-NHAllyl) | 101 to 999 | 
C=CCOC(=O)CNC(=O)C(=O)C(CCC)NC(=O)[C@@H]1CCCN1C(=O)[C@@H](NC(=O)[C@@H](NC(=O)[C@H](CCC(=O)OC(C)(C)C)NC(=O)[C@H](CCC(=O)OC(C)(C)C)NC(C)=O)C(C)C)C1CCCCC1 (stereo partly shown) [Compound 54] (Ac-E(OtBu)E(OtBu)V[Chg]P[X3]G-OAll) | 101 to 999 | 
C=CCOC(=O)CNC(=O)C(=O)C(CCC)NC(=O)[C@@H]1CCCN1C(=O)[C@@H](NC(=O)[C@@H](NC(=O)[C@H](CCC(=O)O)NC(=O)[C@H](CCC(=O)O)NC(C)=O)C(C)C)C1CCCCC1 (stereo partly shown) [Compound 55] (Ac-EEV[Chg]P[X3]G-OAll) | 1 to 100 | 
